By IC50 is meant the dose at which the fit gives 50% viability; a fit beyond the top or the lowest dose is shown as a bound at that dose. For AUC the same curve is integrated over the 256-fold range of doses and scaled to a fraction: 1 means no effect, lower means more sensitive. For part of these data: Where the top dose is marked as inferred, it was derived from the fitted curves, not read from the paper. For part of these data: Drugs with an entry number were screened twice under separate entries, and the two screens often disagree.
Experiments:
Experiment in all cases: Viability of human cancer cell lines after 72 h of drug (GDSC screen)
GNF-2 = compound: NC(=O)c1cccc(-c2cc(Nc3ccc(OC(F)(F)F)cc3)ncn2)c1 [GNF-2]; settings: top dose 1.28 µM; top dose inferred
Description: (§1)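 Human cancer cell lines in 384-well plates, medium with 10% serum, drug for 72 h over a 256-fold dose range (nine 2-fold or five 4-fold steps up to the top dose). Adherent lines were fixed and stained with the nucleic acid dye Syto60, suspension lines read with resazurin; signal relative to control wells, capped at 0 and 100%. One two-parameter sigmoid per drug and line, fitted in a mixed model over all curves with the slope shared within a line.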

Nilotinib = compound: Cc1cn(-c2cc(NC(=O)c3ccc(C)c(Nc4nccc(-c5cccnc5)n4)c3)cc(C(F)(F)F)c2)cn1 [Nilotinib]; settings: top dose 2 µM
Description: as §1

KIN001-270 = compound: Cc1ccc(Nc2cc(-c3cccc(N4C(=O)c5ccccc5C4=O)c3)ncn2)cc1NS(C)(=O)=O [KIN001-270]; settings: top dose 20 µM; top dose inferred
Description: as §1

MP470 = compound: S=C(NCc1ccc2c(c1)OCO2)N1CCN(c2ncnc3c2oc2ccccc23)CC1 [MP470]; settings: top dose 20 µM; top dose inferred
Description: as §1

TW-37 = compound: CC(C)c1ccccc1Cc1cc(C(=O)Nc2ccc(S(=O)(=O)c3ccccc3C(C)(C)C)cc2)c(O)c(O)c1O [TW-37]; settings: top dose 5 µM
Description: as §1

AUY922 = compound: CCNC(=O)c1noc(-c2cc(C(C)C)c(O)cc2O)c1-c1ccc(CN2CCOCC2)cc1 [AUY922]; settings: top dose 0.256 µM; top dose inferred
Description: as §1

Bicalutamide = compound: CC(O)(CS(=O)(=O)c1ccc(F)cc1)C(=O)Nc1ccc(C#N)c(C(F)(F)F)c1 [Bicalutamide]; settings: top dose inferred
Description: as §1

LFM-A13 = compound: C/C(O)=C(\C#N)C(=O)Nc1cc(Br)ccc1Br [LFM-A13]; settings: top dose 16 µM; top dose inferred
Description: as §1

Gemcitabine = compound: Nc1ccn([C@@H]2O[C@H](CO)[C@@H](O)C2(F)F)c(=O)n1 [Gemcitabine]; settings: top dose 1.024 µM
Description: as §1

T0901317 = compound: O=S(=O)(c1ccccc1)N(CC(F)(F)F)c1ccc(C(O)(C(F)(F)F)C(F)(F)F)cc1 [T0901317]; settings: top dose 10.24 µM; top dose inferred
Description: as §1

[1] = top dose 1.024 µM, screen: GDSC drug entry 150
[2] = top dose 10 µM, screen: GDSC drug entry 1502

## GRANTA-519 (B-cell lymphoma, suspension)
GNF-2
  AUC: 0.991
  IC50: > 1.28 µM
Nilotinib
  AUC: 0.974
  IC50: > 2 µM
KIN001-270
  AUC: 0.976
  IC50: > 20 µM
MP470
  AUC: 0.936
  IC50: > 20 µM
TW-37
  AUC: 0.574
  IC50: 0.486 µM
AUY922
  AUC: 0.843
  IC50: 0.154 µM
Bicalutamide; [1]
  AUC: 0.986
  IC50: > 1.02 µM
LFM-A13
  AUC: 0.991
  IC50: > 16 µM
Gemcitabine
  AUC: 0.355
  IC50: 0.0266 µM
T0901317
  AUC: 0.964
  IC50: > 10.2 µM

## LB771-HNC (head and neck, adherent)
GNF-2
  AUC: 0.962
  IC50: > 1.28 µM
Nilotinib
  AUC: 0.928
  IC50: > 2 µM
KIN001-270
  AUC: 0.973
  IC50: > 20 µM
MP470
  AUC: 0.815
  IC50: 14.7 µM
TW-37
  AUC: 0.453
  IC50: 0.225 µM
AUY922
  AUC: 0.98
  IC50: > 0.256 µM
Bicalutamide; [1]
  AUC: 0.981
  IC50: > 1.02 µM
Bicalutamide; [2]
  AUC: 0.964
  IC50: > 10 µM
LFM-A13
  AUC: 0.955
  IC50: > 16 µM
Gemcitabine
  AUC: 0.87
  IC50: > 1.02 µM
T0901317
  AUC: 0.973
  IC50: > 10.2 µM

## MOLM-13 (acute myeloid leukaemia, suspension)
GNF-2
  AUC: 0.984
  IC50: > 1.28 µM
Nilotinib
  AUC: 0.978
  IC50: > 2 µM
KIN001-270
  AUC: 0.94
  IC50: > 20 µM
MP470
  AUC: 0.665
  IC50: 3.48 µM
TW-37
  AUC: 0.63
  IC50: 0.695 µM
AUY922
  AUC: 0.505
  IC50: 0.0165 µM
Bicalutamide; [1]
  AUC: 0.985
  IC50: > 1.02 µM
Bicalutamide; [2]
  AUC: 0.978
  IC50: > 10 µM
LFM-A13
  AUC: 0.98
  IC50: > 16 µM
Gemcitabine
  AUC: 0.356
  IC50: 0.0263 µM
T0901317
  AUC: 0.848
  IC50: 6.89 µM

## LOUCY (T-cell lymphoblastic leukaemia, suspension)
GNF-2
  AUC: 0.992
  IC50: > 1.28 µM
Nilotinib
  AUC: 0.989
  IC50: > 2 µM
KIN001-270
  AUC: 0.936
  IC50: > 20 µM
MP470
  AUC: 0.971
  IC50: > 20 µM
TW-37
  AUC: 0.482
  IC50: 0.282 µM
AUY922
  AUC: 0.435
  IC50: 0.011 µM
Bicalutamide; [1]
  AUC: 0.992
  IC50: > 1.02 µM
Bicalutamide; [2]
  AUC: 0.988
  IC50: > 10 µM
LFM-A13
  AUC: 0.972
  IC50: > 16 µM
Gemcitabine
  AUC: 0.302
  IC50: 0.02 µM
T0901317
  AUC: 0.978
  IC50: > 10.2 µM

## NCI-H1876 (small cell lung carcinoma, adherent)
GNF-2
  AUC: 0.987
  IC50: > 1.28 µM
Nilotinib
  AUC: 0.985
  IC50: > 2 µM
KIN001-270
  AUC: 0.973
  IC50: > 20 µM
MP470
  AUC: 0.853
  IC50: 16 µM
TW-37
  AUC: 0.471
  IC50: 0.26 µM
AUY922
  AUC: 0.933
  IC50: > 0.256 µM
Bicalutamide; [1]
  AUC: 0.979
  IC50: > 1.02 µM
Bicalutamide; [2]
  AUC: 0.986
  IC50: > 10 µM
LFM-A13
  AUC: 0.987
  IC50: > 16 µM
Gemcitabine
  AUC: 0.38
  IC50: 0.0299 µM
T0901317
  AUC: 0.975
  IC50: > 10.2 µM

## TE-8 (oesophagus, adherent)
GNF-2
  AUC: 0.985
  IC50: > 1.28 µM
Nilotinib
  AUC: 0.973
  IC50: > 2 µM
KIN001-270
  AUC: 0.966
  IC50: > 20 µM
MP470
  AUC: 0.966
  IC50: > 20 µM
TW-37
  AUC: 0.417
  IC50: 0.182 µM
AUY922
  AUC: 0.321
  IC50: 0.00486 µM
Bicalutamide; [1]
  AUC: 0.983
  IC50: > 1.02 µM
Bicalutamide; [2]
  AUC: 0.98
  IC50: > 10 µM
LFM-A13
  AUC: 0.963
  IC50: > 16 µM
Gemcitabine
  AUC: 0.192
  IC50: 0.00709 µM
T0901317
  AUC: 0.976
  IC50: > 10.2 µM

## Daudi (Burkitt lymphoma, suspension)
GNF-2
  AUC: 0.988
  IC50: > 1.28 µM
Nilotinib
  AUC: 0.983
  IC50: > 2 µM
KIN001-270
  AUC: 0.934
  IC50: > 20 µM
MP470
  AUC: 0.664
  IC50: 3.34 µM
TW-37
  AUC: 0.641
  IC50: 0.726 µM
AUY922
  AUC: 0.484
  IC50: 0.0146 µM
Bicalutamide; [1]
  AUC: 0.99
  IC50: > 1.02 µM
Bicalutamide; [2]
  AUC: 0.99
  IC50: > 10 µM
LFM-A13
  AUC: 0.972
  IC50: > 16 µM
Gemcitabine
  AUC: 0.682
  IC50: 0.191 µM
T0901317
  AUC: 0.959
  IC50: > 10.2 µM

## PL-21 (acute myeloid leukaemia, suspension)
GNF-2
  AUC: 0.969
  IC50: > 1.28 µM
Nilotinib
  AUC: 0.957
  IC50: > 2 µM
KIN001-270
  AUC: 0.96
  IC50: > 20 µM
MP470
  AUC: 0.892
  IC50: > 20 µM
TW-37
  AUC: 0.774
  IC50: 2.29 µM
AUY922
  AUC: 0.591
  IC50: 0.0296 µM
Bicalutamide; [1]
  AUC: 0.981
  IC50: > 1.02 µM
Bicalutamide; [2]
  AUC: 0.966
  IC50: > 10 µM
LFM-A13
  AUC: 0.943
  IC50: > 16 µM
Gemcitabine
  AUC: 0.717
  IC50: 0.295 µM
T0901317
  AUC: 0.925
  IC50: > 10.2 µM

## SBC-1 (small cell lung carcinoma, suspension)
GNF-2
  AUC: 0.791
  IC50: 0.554 µM
Nilotinib
  AUC: 0.989
  IC50: > 2 µM
KIN001-270
  AUC: 0.982
  IC50: > 20 µM
MP470
  AUC: 0.652
  IC50: 3.24 µM
TW-37
  AUC: 0.596
  IC50: 0.566 µM
AUY922
  AUC: 0.939
  IC50: > 0.256 µM
Bicalutamide; [1]
  AUC: 0.978
  IC50: > 1.02 µM
Bicalutamide; [2]
  AUC: 0.988
  IC50: > 10 µM
LFM-A13
  AUC: 0.989
  IC50: > 16 µM
Gemcitabine
  AUC: 0.605
  IC50: 0.123 µM
T0901317
  AUC: 0.989
  IC50: > 10.2 µM

## RXF393 (kidney, adherent)
GNF-2
  AUC: 0.971
  IC50: > 1.28 µM
Nilotinib
  AUC: 0.924
  IC50: > 2 µM
KIN001-270
  AUC: 0.934
  IC50: > 20 µM
MP470
  AUC: 0.929
  IC50: > 20 µM
TW-37
  AUC: 0.671
  IC50: 1.14 µM
AUY922
  AUC: 0.384
  IC50: 0.00678 µM
Bicalutamide; [1]
  AUC: 0.976
  IC50: > 1.02 µM
Bicalutamide; [2]
  AUC: 0.974
  IC50: > 10 µM
LFM-A13
  AUC: 0.966
  IC50: > 16 µM
Gemcitabine
  AUC: 0.661
T0901317
  AUC: 0.972
  IC50: > 10.2 µM

## SF126 (glioma, adherent)
GNF-2
  AUC: 0.943
  IC50: > 1.28 µM
Nilotinib
  AUC: 0.976
  IC50: > 2 µM
KIN001-270
  AUC: 0.985
  IC50: > 20 µM
MP470
  AUC: 0.961
  IC50: > 20 µM
TW-37
  AUC: 0.316
  IC50: 0.0926 µM
AUY922
  AUC: 0.553
  IC50: 0.0225 µM
Bicalutamide; [1]
  AUC: 0.986
  IC50: > 1.02 µM
Bicalutamide; [2]
  AUC: 0.983
  IC50: > 10 µM
LFM-A13
  AUC: 0.957
  IC50: > 16 µM
Gemcitabine
  AUC: 0.234
  IC50: 0.0103 µM
T0901317
  AUC: 0.983
  IC50: > 10.2 µM

## D-263MG (glioma, adherent)
GNF-2
  AUC: 0.983
  IC50: > 1.28 µM
Nilotinib
  AUC: 0.97
  IC50: > 2 µM
KIN001-270
  AUC: 0.977
  IC50: > 20 µM
MP470
  AUC: 0.954
  IC50: > 20 µM
TW-37
  AUC: 0.513
  IC50: 0.341 µM
AUY922
  AUC: 0.725
  IC50: 0.0813 µM
Bicalutamide; [1]
  AUC: 0.982
  IC50: > 1.02 µM
Bicalutamide; [2]
  AUC: 0.932
  IC50: > 10 µM
LFM-A13
  AUC: 0.911
  IC50: > 16 µM
Gemcitabine
  AUC: 0.973
  IC50: > 1.02 µM
T0901317
  AUC: 0.974
  IC50: > 10.2 µM
